# Measured values reported in the supplement of paper PMC8728848.
# Some of the results follow.
# B1: SLP (Clostridium difficile), Q183M8 (protein)
# chain: MATTGTQGYTVVKNDWKKAVKQLQDGLKDNSIGKITVSFNDGVVGEVAPKSANKKADRDAAAEKLYNLVNTQLDKLGDGDYVDFSVDYNLENKIITNQADAEAIVTKLNSLNEKTLIDIATKDTFGMVSKTQDSEGKNVAATKALKVKDVATFGLKSGGSEDTGYVVEMKAGAVEDKYGKVGDSTAGIAINLPSTGLEYAGKGTTIDFNKTLKVDVTGGSTPSAVAVSGFVTKDDTDLAKSGTINVRVINAKEESIDIDASSYTSAENLAKRYVFDPDEISEAYKAIVALQNDGIESNLVQLVNGKYQVIFYPEGKRLETKSLEHHHHHH
# Tests used:
# Assay in all cases: glycan array binding signal (z-score within array); higher = stronger binding
# Conditions in all cases: glycan notation: IUPAC condensed, linker removed
# [1] = biological target: Neu5Ac(a2-6)Gal(b1-4)GlcNAc(b1-2)Man(a1-3)[Neu5Ac(a2-6)Gal(b1-4)GlcNAc(b1-2)Man(a1-6)]Man(b1-4)GlcNAc(b1-4)GlcNAc
# Procedure, shortened: (§1)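 From the Consortium for Functional Glycomics database, 3228 arrays were curated, keeping only those whose protein sequence was available. Binding is given as a within-array Z-score averaged across arrays sharing a protein sequence and across linkers. Negative Z-scores can be read as non-binding.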
# [2] = biological target: Neu5Ac(a2-6)Gal(b1-4)GlcNAc(b1-2)Man(a1-6)Man(b1-4)GlcNAc(b1-4)GlcNAc
# Procedure, shortened: as §1
# [3] = biological target: Neu5Ac(a2-6)Gal(b1-4)GlcNAc(b1-2)Man(a1-6)[Gal(b1-4)GlcNAc(b1-2)Man(a1-3)]Man(b1-4)GlcNAc(b1-4)GlcNAc
# Procedure, shortened: as §1
# [4] = biological target: Neu5Ac(a2-6)Gal(b1-4)GlcNAc(b1-2)Man(a1-6)[GlcNAc(b1-2)Man(a1-3)]Man(b1-4)GlcNAc(b1-4)GlcNAc
# Procedure, shortened: as §1
# [5] = biological target: Neu5Ac(a2-6)Gal(b1-4)GlcNAc(b1-2)Man(a1-6)[Man(a1-3)]Man(b1-4)GlcNAc(b1-4)GlcNAc
# Procedure, shortened: as §1
# [6] = biological target: Neu5Ac(a2-6)Gal(b1-4)GlcNAc(b1-3)Gal(b1-3)GlcNAc
# Procedure, shortened: as §1
# [7] = biological target: Neu5Ac(a2-6)Gal(b1-4)GlcNAc(b1-3)Gal(b1-4)GlcNAc
# Procedure, shortened: as §1
# [8] = biological target: Neu5Ac(a2-6)Gal(b1-4)GlcNAc(b1-3)Gal(b1-4)GlcNAc(b1-3)Gal(b1-4)GlcNAc
# Procedure, shortened: as §1
# [9] = biological target: Neu5Ac(a2-6)Gal(b1-4)GlcNAc(b1-3)Gal(b1-4)[Fuc(a1-3)]GlcNAc(b1-3)Gal(b1-4)[Fuc(a1-3)]GlcNAc
# Procedure, shortened: as §1
# [10] = biological target: Neu5Ac(a2-6)Gal(b1-4)GlcNAc(b1-3)GalNAc
# Procedure, shortened: as §1
# [11] = biological target: Neu5Ac(a2-6)Gal(b1-4)GlcNAc6S
# Procedure, shortened: as §1
# [12] = biological target: Neu5Ac(a2-6)GalNAc
# Procedure, shortened: as §1
# [13] = biological target: Neu5Ac(a2-6)GalNAc(b1-4)GlcNAc
# Procedure, shortened: as §1
# [14] = biological target: Neu5Ac(a2-6)GlcNAc(b1-4)GlcNAc
# Procedure, shortened: as §1
# [15] = biological target: Neu5Ac(a2-6)GlcNAc(b1-4)GlcNAc(b1-4)GlcNAc
# Procedure, shortened: as §1
# [16] = biological target: Neu5Ac(a2-8)Neu5Ac
# Procedure, shortened: as §1
# [17] = biological target: Neu5Ac(a2-8)Neu5Ac(a2-3)Gal(b1-4)Glc
# Procedure, shortened: as §1
# [18] = biological target: Neu5Ac(a2-8)Neu5Ac(a2-3)[GalNAc(b1-4)]Gal(b1-4)Glc
# Procedure, shortened: as §1
# [19] = biological target: Neu5Ac(a2-8)Neu5Ac(a2-8)Neu5Ac
# Procedure, shortened: as §1
# [20] = biological target: Neu5Ac(a2-8)Neu5Ac(a2-8)Neu5Ac(a2-3)Gal(b1-4)Glc
# Procedure, shortened: as §1
# [21] = biological target: Neu5Ac(a2-8)Neu5Ac(a2-8)Neu5Ac(a2-3)[GalNAc(b1-4)]Gal(b1-4)Glc
# Procedure, shortened: as §1
# [22] = biological target: Neu5Ac(a2-8)Neu5Ac(a2-8)Neu5Ac(a2-8)Neu5Ac(a2-3)[GalNAc(b1-4)]Gal(b1-4)Glc
# Procedure, shortened: as §1
# [23] = biological target: Neu5Ac(b2-6)Gal(b1-4)GlcNAc
# Procedure, shortened: as §1
# [24] = biological target: Neu5Ac(b2-6)GalNAc
# Procedure, shortened: as §1
# [25] = biological target: Neu5Ac9Ac(a2-3)Gal(b1-3)GlcNAc
# Procedure, shortened: as §1
# [26] = biological target: Neu5Ac9Ac(a2-3)Gal(b1-4)GlcNAc
# Procedure, shortened: as §1
# [27] = biological target: Neu5Ac9Ac(a2-6)Gal(b1-4)GlcNAc
# Procedure, shortened: as §1
# [28] = biological target: Neu5Gc(a2-3)Gal(b1-3)GlcNAc
# Procedure, shortened: as §1
# [29] = biological target: Neu5Gc(a2-3)Gal(b1-3)[Fuc(a1-4)]GlcNAc
# Procedure, shortened: as §1
# [30] = biological target: Neu5Gc(a2-3)Gal(b1-4)Glc
# Procedure, shortened: as §1
# [31] = biological target: Neu5Gc(a2-3)Gal(b1-4)GlcNAc
# Procedure, shortened: as §1
# [32] = biological target: Neu5Gc(a2-3)Gal(b1-4)[Fuc(a1-3)]GlcNAc
# Procedure, shortened: as §1
# [33] = biological target: Neu5Gc(a2-6)Gal(b1-4)GlcNAc
# Procedure, shortened: as §1
# [34] = biological target: Neu5Gc(a2-6)GalNAc
# Procedure, shortened: as §1
# [35] = biological target: Neu5Gc(b2-6)Gal(b1-4)GlcNAc
# Procedure, shortened: as §1
binder,measurement,setting,value
B1,glycan array binding signal (z-score),[1],-0.148
same,glycan array binding signal (z-score),[2],-0.195
same,glycan array binding signal (z-score),[3],-0.174
same,glycan array binding signal (z-score),[4],-0.182
same,glycan array binding signal (z-score),[5],-0.17
same,glycan array binding signal (z-score),[6],-0.201
same,glycan array binding signal (z-score),[7],-0.21
same,glycan array binding signal (z-score),[8],-0.187
same,glycan array binding signal (z-score),[9],-0.157
same,glycan array binding signal (z-score),[10],-0.094
same,glycan array binding signal (z-score),[11],-0.129
same,glycan array binding signal (z-score),[12],-0.177
same,glycan array binding signal (z-score),[13],-0.195
same,glycan array binding signal (z-score),[14],-0.212
same,glycan array binding signal (z-score),[15],-0.188
same,glycan array binding signal (z-score),[16],-0.184
same,glycan array binding signal (z-score),[17],-0.169
same,glycan array binding signal (z-score),[18],-0.156
same,glycan array binding signal (z-score),[19],-0.184
same,glycan array binding signal (z-score),[20],-0.154
same,glycan array binding signal (z-score),[21],-0.118
same,glycan array binding signal (z-score),[22],-0.197
same,glycan array binding signal (z-score),[23],-0.154
same,glycan array binding signal (z-score),[24],-0.167
same,glycan array binding signal (z-score),[25],-0.201
same,glycan array binding signal (z-score),[26],-0.188
same,glycan array binding signal (z-score),[27],-0.175
same,glycan array binding signal (z-score),[28],-0.148
same,glycan array binding signal (z-score),[29],-0.173
same,glycan array binding signal (z-score),[30],-0.17
same,glycan array binding signal (z-score),[31],-0.204
same,glycan array binding signal (z-score),[32],-0.166
same,glycan array binding signal (z-score),[33],-0.189
same,glycan array binding signal (z-score),[34],-0.182
same,glycan array binding signal (z-score),[35],-0.172
